Test results published in paper PMC4336329 (PLoS ONE, 2015).
The whole screen tested about 310,000 compounds, of which about 14,000 (4.5%) showed an effect of 50% or more. Effects have a minus sign here. The list shows a part of the results.

biological target: human ether-à-go-go-related gene (hERG) potassium channel (human, UniProt Q12809); test: primary screen, population patch clamp on CHO cells stably expressing hERG
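Note: peak tail current of the secondary pulse compared with the same well before compound.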

Chain of human ether-à-go-go-related gene (hERG) potassium channel (Q12809 whole entry, looked up): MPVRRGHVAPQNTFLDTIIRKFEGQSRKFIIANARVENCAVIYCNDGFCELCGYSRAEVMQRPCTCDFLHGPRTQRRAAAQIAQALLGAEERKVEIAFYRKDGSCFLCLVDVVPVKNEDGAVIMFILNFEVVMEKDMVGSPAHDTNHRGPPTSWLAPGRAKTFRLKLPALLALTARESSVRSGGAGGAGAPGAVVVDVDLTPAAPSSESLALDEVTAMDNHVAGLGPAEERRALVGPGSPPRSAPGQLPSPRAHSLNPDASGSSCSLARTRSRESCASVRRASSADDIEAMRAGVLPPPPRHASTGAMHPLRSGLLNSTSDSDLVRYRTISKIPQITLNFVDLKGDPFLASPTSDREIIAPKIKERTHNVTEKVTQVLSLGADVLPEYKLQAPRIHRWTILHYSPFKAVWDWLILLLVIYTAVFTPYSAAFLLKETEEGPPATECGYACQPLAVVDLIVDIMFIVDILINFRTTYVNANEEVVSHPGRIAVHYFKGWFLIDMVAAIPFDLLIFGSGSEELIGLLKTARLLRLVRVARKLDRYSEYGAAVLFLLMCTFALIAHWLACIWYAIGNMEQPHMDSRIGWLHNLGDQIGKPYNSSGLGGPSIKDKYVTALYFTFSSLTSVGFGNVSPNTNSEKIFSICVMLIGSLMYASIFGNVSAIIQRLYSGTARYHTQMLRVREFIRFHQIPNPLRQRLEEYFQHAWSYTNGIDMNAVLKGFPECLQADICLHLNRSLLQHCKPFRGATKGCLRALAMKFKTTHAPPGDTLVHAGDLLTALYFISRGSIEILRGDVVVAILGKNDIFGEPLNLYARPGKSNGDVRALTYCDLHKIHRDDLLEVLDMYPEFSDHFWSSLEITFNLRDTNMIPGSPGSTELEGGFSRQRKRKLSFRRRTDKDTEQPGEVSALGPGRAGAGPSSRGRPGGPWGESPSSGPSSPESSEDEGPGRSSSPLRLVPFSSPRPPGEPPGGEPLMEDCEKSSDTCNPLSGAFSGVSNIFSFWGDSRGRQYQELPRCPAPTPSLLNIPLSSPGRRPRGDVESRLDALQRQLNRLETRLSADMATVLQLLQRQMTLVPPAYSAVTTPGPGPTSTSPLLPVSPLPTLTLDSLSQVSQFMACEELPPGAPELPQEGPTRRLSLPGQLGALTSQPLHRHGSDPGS

SMILES	hERG current change (%, negative = inhibition) at 10uM
Cc1nc2nc(NC(=O)c3ccco3)[nH]n2c(=O)c1C	7.23%
CC1CCC(C(C)C)C(OC(=O)COC(=O)c2cc(O)ccc2N)C1 (stereo not shown)	12.9%
Cc1nn(-c2ccccc2)c2c1C(=O)N(c1ccccc1)C(=O)C(C)(C)C2	-21.1%
COc1ccccc1C(=O)NC(=O)COC(=O)CCNS(=O)(=O)c1ccccc1	-29.8%
C=CCN(CC=C)C(=O)C1CCN(S(=O)(=O)c2ccc(-n3cnnn3)cc2)CC1	-54.4%
Cc1ccsc1/C=N/n1c(COc2ccccc2)n[nH]c1=S	11.7%
Cc1ncsc1C(=O)Nc1nc2c(s1)CCCC2	6.68%
O=C(CNC(=O)c1ccco1)OCc1cccc(Cl)c1	-7.25%
O=C1C=C(c2cccc3c2sc2ccccc23)C[C@@H](c2ccc(F)cc2)C1	19.6%
Cc1ccc(C2=NS(=O)(=O)N(C)C(C(=O)N3CCOCC3)=C2)cc1	-16.5%
COC(=O)CCn1c(C)cc(C(=O)COc2ccccc2C(N)=O)c1C	8.27%
COc1ccccc1N1CCN(C(=O)c2noc(C)c2[N+](=O)[O-])CC1	21.8%
O=C(O)c1cccc(NC(=O)C2C3C=CC(C3)C2C(=O)OCC(F)(F)C(F)F)c1 (stereo not shown)	11.5%
CC(=O)c1c(C)oc2ccc(NS(=O)(=O)c3ccc(C(=O)O)cc3)cc12	19.3%
Cc1cccn2c(=O)c(C=Nc3ccc(Cl)cc3)c(NCCO)nc12	7.51%
O=C(CN1C(=O)NC(Cc2ccccc2)C1=O)NC(=O)NC1CCCCC1 (stereo not shown)	7.31%
CCOc1ccccc1OCc1nn2c(-c3ccc(C)cc3)nnc2s1	6.13%
O=C(N/N=C/C(Br)=C/c1ccccc1)c1cnccn1	-22.3%
Cc1cc(C)n(CC(O)COc2ccc(Cl)cc2)n1 (stereo not shown)	16.8%
CCC(=O)NC(Nc1cc(C)ccn1)(C(F)(F)F)C(F)(F)F	12.7%
CCC(=O)NC(=S)Nc1ccc(S(=O)(=O)N2CCN(C)CC2)cc1	-13.3%
CC(OC(=O)c1cccc(S(=O)(=O)Nc2cccc(C(F)(F)F)c2)c1)C(=O)Nc1ccc2c(c1)OCCO2 (stereo not shown)	-4.41%

SMILES	hERG current change (%, negative = inhibition) at 10uM
Cc1ccc(C)c(-c2cc(C(=O)NCc3cccs3)c3ccccc3n2)c1	-1.31%
Cc1nn(C)c(=O)n1-c1ccc(Oc2ccccc2)cc1	14.4%
COc1ccc(CNC(=O)CCC(=O)N2C[C@H]3C[C@H](C2)c2cccc(=O)n2C3)cc1OC	11%
O=C(Nc1ccc(CN2CCCCC2)cc1)c1sc2ccccc2c1Cl	-41.2%
N=c1c(S(=O)(=O)c2ccccc2)cc2c(=O)n3ccccc3nc2n1Cc1ccco1	-18.9%
COc1ccc(C2=NCCc3cc(OC)c(OC)cc32)cc1OC	-23.6%
Cc1cc(=O)[nH]c(COc2ccccc2)n1	17.2%
Cc1cc(C)cc(-c2nnc(SCC(=O)c3ccc4c(c3)OCCO4)o2)c1	14.8%
C=CCOc1ccc(C2NC(=S)NC3=C2CCc2ccccc23)cc1 (stereo not shown)	-18.2%
O=S(=O)(Nc1cccc(-c2cn3cccnc3n2)c1)c1ccc(Cl)cc1	16.4%
CC(C)(C)c1cc(C(=O)N/N=C/c2ccc(F)cc2)n(-c2ccccc2)n1	-23.5%
COc1ccc(OCC(=O)N2CCN(C(=O)c3ccco3)CC2)cc1	-32.3%
CC1CC(=O)N(CC(=O)NCc2ccccc2)c2ccccc2S1(=O)=O (stereo not shown)	9.63%
Cc1[nH]n(-c2cccc3ccccc23)c(=O)c1C=Nc1ccc2[nH]c(=O)[nH]c2c1	6.05%
O=S(=O)(c1ccc(Cl)cc1)N1CCN2CCCC2C1 (stereo not shown)	-6.01%
CCOC(=O)c1cc(C(=O)Nc2ccc(S(=O)(=O)Nc3ccc(OC)cc3)cc2)nn1C	22.6%
Cc1ccc2c(c1)COc1c3ccc(C(=O)N4CCCCC4)cc3nn1-2	0.465%
O=C(CCN1C(=O)/C(=C/c2ccc(F)cc2)SC1=S)NNC(=O)c1cccnc1	-3.44%
Cc1nn(C)c(N)c1-c1ccccc1	25.4%
O=C(C[n+]1ccc2ccccc2c1)c1ccccc1.[Br-]	-22.5%
O=C1/C(=C\c2ccc([N+](=O)[O-])cc2)CCc2ccccc21	-6.6%
O=C1c2ccc3c4c(ccc(c24)C(=O)N1c1cccc(O)c1)CC3	4.49%

SMILES	hERG current change (%, negative = inhibition) at 10uM
Cc1cc2c(cc1S(=O)(=O)N1CCN(c3cccc(C(F)(F)F)c3)CC1)OCC(=O)N2	14.8%
O=C(CC1C(=O)NCCN1Cc1ccccn1)NCCc1ccccc1F (stereo not shown)	3.14%
CCSc1nc2ccccc2n1C(=O)/C=C/c1ccc(OC)c(OC)c1	0.513%
Cc1ccc(S(=O)(=O)NCc2cccnc2)c(C)c1	12%
CN(Cc1c(C(=O)N/N=C/c2ccc(F)cc2)nnn1-c1nonc1N)C1CCCCC1	8.21%
CCN(C1CCCCC1)S(=O)(=O)c1cn(C)c(=O)n(C)c1=O	4.78%
O=C(Nc1ccc(S(=O)(=O)C(F)F)cc1)c1ccc2c(=O)n3c(nc2c1)CCC3	24.1%
COc1cc(C(C(=O)NC2CCCC2)N(C(=O)Cc2cccs2)C2CC2)cc(OC)c1OC (stereo not shown)	13.6%
CCc1cccc(Oc2nn[nH]n2)c1	-1.49%
COc1ccc(-c2nc(CS(=O)(=O)CC(=O)NCc3cccc(F)c3)c(C)o2)cc1	7.04%
Cc1cccc(C)c1NC(=O)C1(N2C(=O)CC2c2ccccc2)CCCCC1 (stereo not shown)	6.11%
Cc1cc(NC(=O)CCC(=O)N(Cc2cccs2)C(C(=O)NC2CCCC2)c2ccccc2)no1 (stereo not shown)	-28.4%
NCCCC[C@H]1CN=C(N)N1CCC12CC3CC(CC(C3)C1)C2	14.4%
CCn1c(SCC(=O)NC2CCCC2)nnc1C(C)C	17%
CN/N=C/c1ccc(C#N)cc1	9.35%
CCOc1nc(NCCN2CCOCC2)nc(Nc2ccc(C)cc2)n1	-65.3%
Cc1ccsc1CN(C)C(=O)CN1C(=O)NC2(CCCCC2C)C1=O (stereo not shown)	-6.87%
COc1ccc(NC(=O)c2cc(CN3C(=O)c4ccccc4C3=O)ccc2OC)cn1	0.475%
COc1ccc(NC2CC(=O)N(C)C2=O)cc1 (stereo not shown)	-4.29%
COc1cccc(/C=C2\SC(=S)N(NC(=O)c3ccncc3)C2=O)c1	6.47%
O=C(O)CCCNS(=O)(=O)Cc1ccccc1	13.7%
COc1ccc(-n2c(C)cc(C(=O)Cn3nc(C(=O)O)c4ccccc4c3=O)c2C)cc1	-1.43%

SMILES	hERG current change (%, negative = inhibition) at 10uM
Cc1cccc(Cn2nc(C(C)(C)C)cc2C(=O)N2CCOCC2)c1	-9.52%
Cc1cc(Cl)ccc1NC(=S)NCCCO	15.9%
CC1CCN(C(=O)c2[nH]cnc2C(=O)NC2CCN(C(=O)OC(C)(C)C)CC2)CC1	9.62%
O=C(CC(=O)c1ccccc1)Nc1ccc(Cl)cc1	17.8%
Cc1cc(C)n(CC(=O)n2nc(C)cc2C)n1	7.07%
COC(=O)[C@@]1(Cc2ccc(F)cc2)[C@H]2c3cc(C(=O)N(C)C)n(CCSCCO)c3C[C@H]2CN1C(=O)c1ccccc1	-34.4%
CCC(=O)Nc1ccc(NC(=O)CSc2nnnn2-c2ccc3c(c2)OCCO3)cc1	5%
Br.CCn1c(=N)n(CC(=O)c2cccc([N+](=O)[O-])c2)c2ccccc21	12.1%
CCOC(=O)c1c(-c2ccccc2)csc1N1C(=O)Nc2ccccc2N1O	-3.7%
CC1CN(C(=O)CN(C)S(=O)(=O)c2ccc3ccccc3c2)CC(C)O1 (stereo not shown)	-2.51%
O=C(Nc1ccc2oc(-c3ccncc3)nc2c1)c1ccc(Br)o1	5.42%
CCOC(=O)c1c(NC(=O)c2nn(CC)cc2Br)sc(C)c1C	14.3%
O=C(Nc1ccccc1Cl)c1ccccc1Cl	1.69%
Cc1[nH]n(S(=O)(=O)c2ccccc2)c(=O)c1N=Nc1cccc(Cl)c1	16.2%
COC(C)c1oc2c(C)c3oc(=O)cc(C)c3cc2c1C (stereo not shown)	-0.729%
Cl.NCCCCc1cn(CC(=O)N2CCNCC2)nn1	11.1%
CC(C)Cc1cc(C(=O)Nc2cc(Br)ccc2O)no1	1.91%
COc1ccccc1C(O)(C(=O)NNc1ccccc1C)c1ccccc1OC	59.9%
CCOC(=O)CCc1c(C)c2ccc(OCC(=O)N3CCOCC3)c(C)c2oc1=O	-34.4%
Cc1nnc(NC(=O)C2COc3ccccc3O2)s1 (stereo not shown)	3.12%
NC(=O)c1sc2nc(N3CCCCC3)c3c(c2c1N)CCCC3	-16.8%
Cc1ccc(S(=O)(=O)Nc2ccccc2F)cc1C(=O)OC(C)C(=O)N1CCOCC1 (stereo not shown)	-7.94%
